Test results from article PMC9638944, “ATM-mediated ELL phosphorylation enhances its self-association through increased EAF1 interaction and inhibits global transcription during genotoxic stress” (Nucleic Acids Research, 2022).
Changes are numbered by the printed parent chain. No constants are given. Whether binding was seen depends on the method and setting. In cells and extracts the contact can be indirect. Some binding calls cover weakened binding; strength is not graded here. For some of these results: Tags and fused reporters may be left off the sequences shown. Each block holds one molecule with its values, some of them ahead of it.

Amino acid sequences for entries named in this document (tags omitted).
UniProt P50750: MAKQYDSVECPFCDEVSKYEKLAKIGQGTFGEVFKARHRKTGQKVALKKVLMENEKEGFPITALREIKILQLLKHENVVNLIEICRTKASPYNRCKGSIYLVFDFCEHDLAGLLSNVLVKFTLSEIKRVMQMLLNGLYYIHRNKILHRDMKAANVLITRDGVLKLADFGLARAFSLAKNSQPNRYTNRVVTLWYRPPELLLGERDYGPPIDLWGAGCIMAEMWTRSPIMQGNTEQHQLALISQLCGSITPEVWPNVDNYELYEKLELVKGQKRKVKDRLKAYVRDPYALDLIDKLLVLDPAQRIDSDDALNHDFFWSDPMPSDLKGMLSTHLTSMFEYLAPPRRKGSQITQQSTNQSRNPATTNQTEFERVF
UniProt Q96CJ1: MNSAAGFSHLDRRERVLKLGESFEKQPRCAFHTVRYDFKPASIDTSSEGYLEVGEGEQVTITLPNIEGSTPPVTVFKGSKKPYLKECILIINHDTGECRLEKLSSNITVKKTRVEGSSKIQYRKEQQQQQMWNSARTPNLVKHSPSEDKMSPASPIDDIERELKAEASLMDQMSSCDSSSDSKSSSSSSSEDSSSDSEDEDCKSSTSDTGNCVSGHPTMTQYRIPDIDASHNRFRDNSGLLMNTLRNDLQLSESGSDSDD
UniProt Q9Y2F5: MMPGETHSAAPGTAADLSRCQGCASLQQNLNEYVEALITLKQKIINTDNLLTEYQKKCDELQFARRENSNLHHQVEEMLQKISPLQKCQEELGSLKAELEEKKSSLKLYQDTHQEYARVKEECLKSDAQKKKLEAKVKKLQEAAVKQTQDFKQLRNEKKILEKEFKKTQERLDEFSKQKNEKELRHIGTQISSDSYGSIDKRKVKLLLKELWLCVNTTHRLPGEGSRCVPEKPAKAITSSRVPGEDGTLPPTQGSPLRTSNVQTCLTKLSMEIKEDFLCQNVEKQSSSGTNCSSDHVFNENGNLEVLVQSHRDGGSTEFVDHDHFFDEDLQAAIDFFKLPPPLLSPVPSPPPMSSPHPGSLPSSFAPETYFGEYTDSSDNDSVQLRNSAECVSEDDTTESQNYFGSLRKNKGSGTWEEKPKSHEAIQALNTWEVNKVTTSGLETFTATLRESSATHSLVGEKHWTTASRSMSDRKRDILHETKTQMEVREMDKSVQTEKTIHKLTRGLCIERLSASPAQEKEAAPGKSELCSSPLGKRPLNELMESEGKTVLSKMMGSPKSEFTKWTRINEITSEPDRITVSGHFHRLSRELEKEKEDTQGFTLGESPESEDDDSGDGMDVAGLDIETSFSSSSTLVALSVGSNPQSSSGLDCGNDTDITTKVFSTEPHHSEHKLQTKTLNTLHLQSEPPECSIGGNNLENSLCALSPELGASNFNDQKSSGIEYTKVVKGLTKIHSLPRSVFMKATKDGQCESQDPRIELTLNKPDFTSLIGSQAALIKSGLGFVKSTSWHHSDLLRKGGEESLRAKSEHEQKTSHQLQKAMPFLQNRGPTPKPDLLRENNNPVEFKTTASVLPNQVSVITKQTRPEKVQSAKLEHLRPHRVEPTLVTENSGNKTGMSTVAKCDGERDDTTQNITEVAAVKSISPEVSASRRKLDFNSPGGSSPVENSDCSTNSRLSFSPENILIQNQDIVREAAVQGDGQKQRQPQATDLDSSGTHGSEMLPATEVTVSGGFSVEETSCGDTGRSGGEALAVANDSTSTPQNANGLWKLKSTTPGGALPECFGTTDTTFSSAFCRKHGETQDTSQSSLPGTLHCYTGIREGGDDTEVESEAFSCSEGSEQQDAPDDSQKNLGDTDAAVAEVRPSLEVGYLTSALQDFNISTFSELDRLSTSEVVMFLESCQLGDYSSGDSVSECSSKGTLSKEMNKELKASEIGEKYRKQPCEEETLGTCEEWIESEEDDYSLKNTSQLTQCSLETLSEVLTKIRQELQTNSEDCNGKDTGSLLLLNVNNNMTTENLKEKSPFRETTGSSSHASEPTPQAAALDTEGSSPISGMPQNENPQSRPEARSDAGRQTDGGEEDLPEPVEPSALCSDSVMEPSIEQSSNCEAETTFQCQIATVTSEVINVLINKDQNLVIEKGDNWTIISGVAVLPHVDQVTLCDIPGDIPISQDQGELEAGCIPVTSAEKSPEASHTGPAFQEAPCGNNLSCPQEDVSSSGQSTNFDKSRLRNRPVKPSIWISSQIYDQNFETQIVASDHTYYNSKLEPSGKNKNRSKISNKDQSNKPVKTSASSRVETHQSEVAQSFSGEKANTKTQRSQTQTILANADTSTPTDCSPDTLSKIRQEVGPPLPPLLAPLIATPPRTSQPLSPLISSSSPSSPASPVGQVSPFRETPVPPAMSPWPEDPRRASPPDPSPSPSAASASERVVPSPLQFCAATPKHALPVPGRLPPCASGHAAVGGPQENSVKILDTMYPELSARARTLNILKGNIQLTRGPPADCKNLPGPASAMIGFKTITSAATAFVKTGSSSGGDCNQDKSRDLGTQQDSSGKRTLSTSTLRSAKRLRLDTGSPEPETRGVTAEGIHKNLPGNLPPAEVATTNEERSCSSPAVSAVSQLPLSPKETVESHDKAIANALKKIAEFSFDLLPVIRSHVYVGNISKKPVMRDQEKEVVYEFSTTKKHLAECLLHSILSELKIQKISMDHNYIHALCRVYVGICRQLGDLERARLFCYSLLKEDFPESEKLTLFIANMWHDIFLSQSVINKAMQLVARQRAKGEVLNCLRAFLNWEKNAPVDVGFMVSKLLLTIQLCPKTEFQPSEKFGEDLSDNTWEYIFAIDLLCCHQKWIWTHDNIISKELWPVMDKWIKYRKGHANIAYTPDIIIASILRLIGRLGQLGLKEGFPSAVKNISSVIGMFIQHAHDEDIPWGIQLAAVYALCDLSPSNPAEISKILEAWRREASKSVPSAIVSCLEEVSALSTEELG
UniProt P42568: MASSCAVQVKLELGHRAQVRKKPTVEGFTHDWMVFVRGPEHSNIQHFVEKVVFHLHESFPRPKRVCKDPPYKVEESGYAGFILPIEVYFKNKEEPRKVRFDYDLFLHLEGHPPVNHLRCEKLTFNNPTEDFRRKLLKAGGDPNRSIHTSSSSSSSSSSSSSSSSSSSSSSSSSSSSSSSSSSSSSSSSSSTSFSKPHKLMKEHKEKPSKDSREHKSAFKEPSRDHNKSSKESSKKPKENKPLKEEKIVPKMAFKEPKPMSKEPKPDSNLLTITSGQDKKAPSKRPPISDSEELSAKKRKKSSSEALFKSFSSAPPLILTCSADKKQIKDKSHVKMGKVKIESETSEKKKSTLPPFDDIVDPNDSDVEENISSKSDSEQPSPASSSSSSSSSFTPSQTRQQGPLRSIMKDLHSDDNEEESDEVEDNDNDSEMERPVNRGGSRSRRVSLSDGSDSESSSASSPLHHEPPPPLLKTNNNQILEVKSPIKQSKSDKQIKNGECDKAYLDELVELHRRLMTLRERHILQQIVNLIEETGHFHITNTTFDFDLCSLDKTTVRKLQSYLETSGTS

Assays:
[1] = biological target: T1, FLAG-ELL (human) (UniProt P55199); assay: co-IP; 293T cells transiently expressing epitope-tagged proteins, harvested 48 h after transfection; lysis buffer 20 mM Tris-Cl pH 8, 20% glycerol, 2 mM EDTA, 150 mM KCl, 0.1% NP-40; anti-FLAG M2 or anti-HA agarose, 12 h, 4°C; immunoblot. Also the first round of the tandem purifications from 293T. Some panels with doxorubicin, IR, ATM inhibitor, EAF1 or EAF2 knock-down or over-expression
T1 sequence: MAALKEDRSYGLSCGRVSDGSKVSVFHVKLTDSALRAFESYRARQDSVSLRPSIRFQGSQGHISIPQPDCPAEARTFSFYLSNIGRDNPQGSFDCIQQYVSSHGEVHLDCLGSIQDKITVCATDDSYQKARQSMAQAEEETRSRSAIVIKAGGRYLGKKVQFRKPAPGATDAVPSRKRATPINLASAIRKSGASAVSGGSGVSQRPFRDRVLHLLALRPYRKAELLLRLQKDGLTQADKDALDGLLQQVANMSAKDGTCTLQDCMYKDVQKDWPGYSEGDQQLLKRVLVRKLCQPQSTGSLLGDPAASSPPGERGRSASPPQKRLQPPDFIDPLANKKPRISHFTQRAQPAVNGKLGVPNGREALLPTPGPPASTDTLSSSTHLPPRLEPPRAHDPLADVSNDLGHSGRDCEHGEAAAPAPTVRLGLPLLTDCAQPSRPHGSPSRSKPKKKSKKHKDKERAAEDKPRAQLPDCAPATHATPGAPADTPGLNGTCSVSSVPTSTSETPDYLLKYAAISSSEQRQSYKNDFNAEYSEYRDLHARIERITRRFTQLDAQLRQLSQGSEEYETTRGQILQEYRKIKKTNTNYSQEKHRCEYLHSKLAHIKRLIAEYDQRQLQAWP

[2] = biological target: T2, His-ELL (Sf9) (human) (UniProt P55199); assay: co-IP; Sf9 cells co-infected with baculoviruses, lysis buffer with 300 mM KCl and 0.1% NP-40; first round of precipitation by the tagged ELL (FLAG-ELL or His-ELL), 12 h, 4°C; immunoblot
T2 sequence: T1 sequence

[3] = biological target: T3, endogenous ELL (human (endogenous in 293T)) (UniProt P55199); assay: co-IP; endogenous proteins from 293T whole cell lysate in BC150 buffer with 0.1% NP-40; target-specific antibody on protein-G magnetic beads, 12 h, 4°C; species-specific IgG as control; some panels after doxorubicin
T3 sequence: T1 sequence

[4] = biological target: T3, endogenous ELL (human (endogenous in 293T)); assay: co-sedimentation; nuclear extract of 293T cells on a 4–20% glycerol gradient, 40K RPM, 8 h, 4°C; fractions immunoblotted
[5] = biological target: T4, FLAG-ELL (45–621) (human) (UniProt P55199); assay: co-IP; 293T cells transiently expressing epitope-tagged proteins, harvested 48 h after transfection; lysis buffer 20 mM Tris-Cl pH 8, 20% glycerol, 2 mM EDTA, 150 mM KCl, 0.1% NP-40; anti-FLAG M2 or anti-HA agarose, 12 h, 4°C; immunoblot. Also the first round of the tandem purifications from 293T. Some panels with doxorubicin, IR, ATM inhibitor, EAF1 or EAF2 knock-down or over-expression
T4 sequence: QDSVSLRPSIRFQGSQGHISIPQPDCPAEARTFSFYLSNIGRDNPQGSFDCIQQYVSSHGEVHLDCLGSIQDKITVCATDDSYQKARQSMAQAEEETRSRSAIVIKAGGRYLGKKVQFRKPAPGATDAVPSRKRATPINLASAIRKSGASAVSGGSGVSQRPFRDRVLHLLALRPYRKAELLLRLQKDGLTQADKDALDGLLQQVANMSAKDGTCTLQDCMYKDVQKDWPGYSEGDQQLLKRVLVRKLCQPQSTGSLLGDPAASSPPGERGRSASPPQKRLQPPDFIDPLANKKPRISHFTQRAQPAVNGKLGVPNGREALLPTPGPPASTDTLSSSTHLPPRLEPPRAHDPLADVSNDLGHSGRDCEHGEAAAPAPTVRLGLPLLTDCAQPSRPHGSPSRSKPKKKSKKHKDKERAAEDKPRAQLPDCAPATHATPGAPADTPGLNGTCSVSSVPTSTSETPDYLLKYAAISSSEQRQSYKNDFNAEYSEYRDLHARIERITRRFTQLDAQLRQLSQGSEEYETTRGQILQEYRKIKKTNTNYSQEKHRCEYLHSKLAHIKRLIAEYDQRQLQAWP

[6] = biological target: T5, FLAG-ELL (Sf9) (human) (UniProt P55199); assay: co-IP; Sf9 cells co-infected with baculoviruses, lysis buffer with 300 mM KCl and 0.1% NP-40; first round of precipitation by the tagged ELL (FLAG-ELL or His-ELL), 12 h, 4°C; immunoblot
T5 sequence: T1 sequence

[7] = biological target: ELL•CDK9•SEC (293T) (human) (UniProt P55199+P50750); assay: co-IP; tandem affinity purification from 293T cells: second round (His-CDK9, or the second tagged ELL) from the eluate of the first round; immunoblot
[8] = biological target: T1, FLAG-ELL (human); assay: co-IP; 293T cells transiently expressing epitope-tagged proteins, harvested 48 h after transfection; lysis buffer 20 mM Tris-Cl pH 8, 20% glycerol, 2 mM EDTA, 150 mM KCl, 0.1% NP-40; anti-FLAG M2 or anti-HA agarose, 12 h, 4°C; immunoblot. Also the first round of the tandem purifications from 293T. Some panels with doxorubicin, IR, ATM inhibitor, EAF1 or EAF2 knock-down or over-expression; remark: listed apart in the source
[9] = biological target: FLAG-EAF1 (Sf9) (human) (UniProt Q96JC9); assay: co-IP; Sf9 cells co-infected with baculoviruses; second round of precipitation (His-CDK9, AF9 or FLAG-EAF1) from the eluate of the first round; bound material and supernatant immunoblotted
[10] = biological target: T1, FLAG-ELL (human); assay: co-IP; tandem affinity purification from 293T cells: second round (His-CDK9, or the second tagged ELL) from the eluate of the first round; immunoblot
[11] = biological target: T3, endogenous ELL (human (endogenous in 293T)); assay: cross-linking; 293T whole cell lysate with 0.03–0.01% glutaraldehyde at room temperature, SDS-PAGE, immunoblot; one panel with over-expressed EAF1
[12] = biological target: T6, FLAG-ELL TM (human) (UniProt P55199); assay: co-IP; 293T cells transiently expressing epitope-tagged proteins, harvested 48 h after transfection; lysis buffer 20 mM Tris-Cl pH 8, 20% glycerol, 2 mM EDTA, 150 mM KCl, 0.1% NP-40; anti-FLAG M2 or anti-HA agarose, 12 h, 4°C; immunoblot. Also the first round of the tandem purifications from 293T. Some panels with doxorubicin, IR, ATM inhibitor, EAF1 or EAF2 knock-down or over-expression
T6 sequence: T1 sequence with T551A, S561A, S589A

binding [1]: binds
Molecule: ectopically expressed EAF1 (from UniProt Q96JC9 1-268)

binding [1]: binds
Molecule: His-CDK9 (from UniProt P50750 1-372)

binding [1]: binds
Molecule: over-expressed EAF2 (from UniProt Q96CJ1 1-260)

binding [6]: binds
Molecule: His-CDK9 (Sf9) (from UniProt P50750 1-372)

binding [11]: binds
B4: endogenous ELL (protein, UniProt P55199 1-621)
chain: T1 sequence

The next lines start with the molecule.

Molecule: FLAG-EAF1 (Sf9) (from UniProt Q96JC9 1-268)
binding [2]: binds

Molecule: endogenous CDK9 (from UniProt P50750 1-372)
binding [3]: binds | binding [4]: binds | binding [5]: binds | binding [1]: binds

Molecule: ICE1 (from UniProt Q9Y2F5 1-2266)
binding [1]: binds

Molecule: AF9 (Sf9) (from UniProt P42568 1-568)
binding [6]: binds

B1: ENL (protein, UniProt Q03111 1-559)
chain: MDNQCTVQVRLELGHRAQLRKKPTTEGFTHDWMVFVRGPEQCDIQHFVEKVVFWLHDSFPKPRRVCKEPPYKVEESGYAGFIMPIEVHFKNKEEPRKVCFTYDLFLNLEGNPPVNHLRCEKLTFNNPTTEFRYKLLRAGGVMVMPEGADTVSRPSPDYPMLPTIPLSAFSDPKKTKPSHGSKDANKESSKTSKPHKVTKEHRERPRKDSESKSSSKELEREQAKSSKDTSRKLGEGRLPKEEKAPPPKAAFKEPKMALKETKLESTSPKGGPPPPPPPPPRASSKRPATADSPKPSAKKQKKSSSKGSRSAPGTSPRTSSSSSFSDKKPAKDKSSTRGEKVKAESEPREAKKALEVEESNSEDEASFKSESAQSSPSNSSSSSDSSSDSDFEPSQNHSQGPLRSMVEDLQSEESDEDDSSSGEEAAGKTNPGRDSRLSFSDSESDNSADSSLPSREPPPPQKPPPPNSKVSGRRSPESCSKPEKILKKGTYDKAYTDELVELHRRLMALRERNVLQQIVNLIEETGHFNVTNTTFDFDLFSLDETTVRKLQSCLEAVAT
binding [7]: binds | binding [8]: binds

B2: His-ELL (Sf9) (protein, UniProt P55199 1-621)
chain: T1 sequence
binding [9]: binds

B3: HA-ELL (protein, UniProt P55199 1-621)
chain: T1 sequence
binding [10]: binds | binding [8]: binds

B5: GFP-ELL (protein, UniProt P55199 1-621)
chain: T1 sequence
binding [12]: binds | binding [8]: binds
